Test results published in patent US20220098305A1 (Hoffmann-La Roche, published 2022).
One block for each binder: values may come before it.

How the values were obtained:
human ICOS [1] = molecular target: T1, human ICOS (human, UniProt Q9Y6W8 21-199); experiment: cell-based or functional assay
T1 sequence: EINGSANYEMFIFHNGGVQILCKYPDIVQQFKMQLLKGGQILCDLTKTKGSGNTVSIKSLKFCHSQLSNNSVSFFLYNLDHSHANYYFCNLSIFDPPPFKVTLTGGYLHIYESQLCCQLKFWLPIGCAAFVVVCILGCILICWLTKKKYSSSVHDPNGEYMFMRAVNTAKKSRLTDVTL

human ICOS [2] = molecular target: T1, human ICOS; experiment: flow cytometry, CHO cells expressing human ICOS

EC50 of activation of Jurkat-NFAT reporter cell line (human ICOS [1]): ~8.11 nM | Max (Counts/sec), Jurkat-NFAT reporter cell line (human ICOS [1]): 51000 Counts/sec | EC50 (human ICOS [2]): 2.92 nM | Max (Log10(MFI)) (human ICOS [2]): 6.55 Log10(MFI)
B1: Molecule 25 (ICOS H009v1_1) (antibody, human IgG1, kappa)
heavy: EVQLVESGGGLVQPGRSLRLSCTASGFTFSDYWMNWVRQAPGKGLEWVAQIRNKPYNYETYYSDSVKGRFTISRDDSKSIAYLQMNSLKTEDTAVYYCTWPRLRSSDWHFDVWGKGTTVTVSSASTKGPSVFPLAPSSKSTSGGTAALGCLVKDYFPEPVTVSWNSGALTSGVHTFPAVLQSSGLYSLSSVVTVPSSSLGTQTYICNVNHKPSNTKVDKKV[human IgG1 Fc with changes cut from this listing]
light: DIQMTQSPSSLSASVGDRVTITCQASQDINKNIAWYQQKPGKAPKLLIWYTSTLQTGVPSRFSGSGSGTDFTFTISSLQPEDIATYYCLQFDNLYTFGQGTKLEIKRTVAAPSVFIFPPSDEQLKSGTASVVCLLNNFYPREAKVQWKVDNALQSGNSQESVTEQDSKDSTYSLSSTLTLSKADYEKHKVYACEVTHQGLSSPVTKSFNRGEC
notes: Human IgG format

EC50 of activation of Jurkat-NFAT reporter cell line (human ICOS [1]): ~7.77 nM | Max (Counts/sec), Jurkat-NFAT reporter cell line (human ICOS [1]): 55300 Counts/sec | EC50 (human ICOS [2]): 5.26 nM | Max (Log10(MFI)) (human ICOS [2]): 7.8 Log10(MFI)
B2: Molecule 26 (ICOS H009v1_2) (antibody, human IgG1, kappa)
heavy: EVQLVESGGGLVQPGRSLRLSCTASGFTFSDYWMNWVRQAPGKGLEWVAQIRNKPYNYETYYSDSVKGRFTISRDDSKSIAYLQMNSLKTEDTAVYYCTWPRLRSSDWHFDVWGAGTTVTVSSASTKGPSVFPLAPSSKSTSGGTAALGCLVKDYFPEPVTVSWNSGALTSGVHTFPAVLQSSGLYSLSSVVTVPSSSLGTQTYICNVNHKPSNTKVDKKV[human IgG1 Fc with changes cut from this listing]
light: B1 light
notes: Human IgG format
